# Experimental data as given in PMC4336329 (PLoS ONE, 2015).
# The campaign covered roughly 310,000 compounds. About 2,200 (0.71%) showed an effect of 50% or more. The effect is printed as a negative number. The list shows a part of the results.
# Biological target: human ether-à-go-go-related gene (hERG) potassium channel (human, UniProt Q12809)
# Test: primary screen, population patch clamp on CHO cells stably expressing hERG
# Sequence of human ether-à-go-go-related gene (hERG) potassium channel (Q12809 whole entry, looked up): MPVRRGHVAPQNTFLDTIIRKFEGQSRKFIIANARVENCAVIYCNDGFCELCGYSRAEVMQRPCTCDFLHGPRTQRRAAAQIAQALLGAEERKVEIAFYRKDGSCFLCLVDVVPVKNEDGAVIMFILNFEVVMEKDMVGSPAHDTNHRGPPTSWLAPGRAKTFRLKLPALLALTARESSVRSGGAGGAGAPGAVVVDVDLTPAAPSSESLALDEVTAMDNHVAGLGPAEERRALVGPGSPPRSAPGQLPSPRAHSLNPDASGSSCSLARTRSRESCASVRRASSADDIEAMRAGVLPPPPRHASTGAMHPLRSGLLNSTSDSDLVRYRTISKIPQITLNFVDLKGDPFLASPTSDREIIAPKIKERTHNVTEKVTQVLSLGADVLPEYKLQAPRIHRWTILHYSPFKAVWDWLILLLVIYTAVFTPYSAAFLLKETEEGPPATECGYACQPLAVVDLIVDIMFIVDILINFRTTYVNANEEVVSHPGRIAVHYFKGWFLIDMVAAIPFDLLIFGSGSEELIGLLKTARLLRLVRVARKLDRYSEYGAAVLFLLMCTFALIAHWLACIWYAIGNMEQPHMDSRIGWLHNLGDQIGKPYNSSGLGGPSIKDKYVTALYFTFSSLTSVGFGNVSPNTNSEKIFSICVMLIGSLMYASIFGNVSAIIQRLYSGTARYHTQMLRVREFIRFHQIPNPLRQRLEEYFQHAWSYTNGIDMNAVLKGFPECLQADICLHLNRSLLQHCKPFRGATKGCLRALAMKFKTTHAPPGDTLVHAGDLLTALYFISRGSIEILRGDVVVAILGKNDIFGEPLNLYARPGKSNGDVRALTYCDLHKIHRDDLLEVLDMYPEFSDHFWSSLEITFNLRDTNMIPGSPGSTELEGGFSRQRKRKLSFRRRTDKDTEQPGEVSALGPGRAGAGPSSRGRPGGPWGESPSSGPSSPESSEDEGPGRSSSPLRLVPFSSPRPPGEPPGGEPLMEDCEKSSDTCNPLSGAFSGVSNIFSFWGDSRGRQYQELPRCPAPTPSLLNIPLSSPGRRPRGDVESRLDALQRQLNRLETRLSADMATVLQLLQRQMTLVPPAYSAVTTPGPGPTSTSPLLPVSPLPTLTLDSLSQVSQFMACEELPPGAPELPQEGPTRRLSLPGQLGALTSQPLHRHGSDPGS
row,Structure (SMILES),"hERG current change (%, negative = inhibition) at 1uM [%]"
1,CCn1c(=O)n(CC)c2cc(N3CCCC3)c(NC(=O)c3ccc(F)cc3)cc21,0.988
2,CC1=C(CC(=O)O)c2cc(F)ccc2/C1=C\c1ccc(S(C)=O)cc1 (stereo not shown),0.294
3,Cc1cc(NC(=O)c2ccco2)ccc1-n1cnnn1,3.85
4,Cc1nnc(SCc2cc(=O)[nH]c(N3CCCCC3)n2)s1,8.77
5,CCCCCC1CCC(c2ccc(C(N)=O)cc2)CC1 (stereo not shown),9.37
6,O=c1c2ccccc2cnn1Cc1n[nH]c(=S)n1-c1cc(Cl)cc(Cl)c1,9.86
7,Cc1cccc(-n2c(-c3ccc(Br)o3)n[nH]c2=S)c1,13
8,Cc1cc(N/N=C/c2ccc([N+](=O)[O-])o2)nc2ccccc12,9.29
9,Cc1cc(S(=O)(=O)N2CCN(c3ccccn3)CC2)ccc1F,9.75
10,CS(=O)(=O)N1CCC(C(=O)Nc2ccc(Cl)c(C(F)(F)F)c2)CC1,0.657
11,COc1cccc(/C=N/n2nnc3c(cnn3-c3ccccc3)c2=O)c1,10.7
12,CCOc1ccc(NC(=O)C2CCC(N3C(=O)C4CC=CCC4C3=O)CC2)cc1 (stereo not shown),16.9
13,COc1ccc(C(=O)NCC(c2ccco2)N2CCCC2)cc1S(=O)(=O)N1CCCCC1C (stereo not shown),-16.2
14,CCc1noc(C)c1C(=O)Nc1cc(S(=O)(=O)N2CCOCC2)ccc1OC(C)C,-1.94
15,O=S(=O)(O)c1nc2ccccc2n1Cc1ccc(Cl)cc1,14.1
16,Cl.c1csc(CN2CCNCC2)c1,11.4
17,CC(C(=O)O)N1C(=O)c2ccccc2C1=O (stereo not shown),0.051
18,O=C(O)C1CCCCC1C(=O)NC(c1ccccc1)c1ccccc1 (stereo not shown),6.28
19,O=C1c2cccc([N+](=O)[O-])c2C(=O)N1CCO,10.8
20,CCOC(=O)c1sc(Nc2nc3c(OC)cccc3s2)cc1C,-3.13
21,Cc1ccc(S(=O)(=O)C2CCOC2=O)cc1 (stereo not shown),2.77
22,Cc1ccc(N(C(=O)CNC(=O)c2ccco2)C(C(=O)NC2CCCCC2)c2cccnc2)cc1F (stereo not shown),12.3

row,Structure (SMILES),"hERG current change (%, negative = inhibition) at 1uM [%]"
1,O=[N+]([O-])c1ccc(/C=N\N2CCN(c3ccc(Cl)cc3)CC2)cc1,14.9
2,COc1ccccc1CNC(=O)N1CCN(S(=O)(=O)c2ccc(C)cc2)CC1,9.88
3,CCCCc1ncc(CN2CCC(CC3CCCCO3)(C(=O)OCC)CC2)[nH]1 (stereo not shown),-19.8
4,Cc1ccc(O)c(C(=O)c2cc(C(=O)NCCC(C)C)c(=O)n(CCC(C)C)c2)c1,15.2
5,CC(OC(=O)c1nn(C)c(=O)c2ccccc12)C(=O)Nc1ccc(S(N)(=O)=O)cc1 (stereo not shown),12.5
6,O=C1COc2ccc(C(=O)/C=C/c3ccccc3)cc2N1,14.5
7,Cl.c1ccc(SCCOCCN2CCOCC2)cc1,11.5
8,NC(=O)c1cccc2cc3ccccc3cc12,5.6
9,COc1cc(CN2CCC(Cc3ccccc3)CC2)cc(OC)c1OC.O=C(O)C(=O)O,-12
10,CSC1=NC(C)(C)CC2(C)Nc3ccccc3N12 (stereo not shown),15.1
11,Cc1ccc(NC(=O)CN(CCc2ccccc2)S(C)(=O)=O)cc1,9.01
12,CCOC(=O)Nc1ccc2c(CN3CCN(S(=O)(=O)c4ccc(C(C)C)cc4)CC3)cc(=O)oc2c1,17.9
13,Cc1ccc(CNC(=O)c2ccc(C#CC(C)(C)O)s2)cc1,0.607
14,CN1CC(C(=O)c2cccs2)C(c2ccc(Cl)cc2)C1 (stereo not shown),2.44
15,O=S(=O)(Nc1ccccc1N1CCCCC1)c1ccc(Cl)s1,3.78
16,Cc1nn(-c2ccccc2)c(C)c1C(=O)NCc1ccccc1F,16.1
17,Cc1nnc(NC(=O)C2=COCCO2)s1,12.2
18,CC1CN(C(=O)COC(=O)c2ccc(N(C)C)cc2)CC(C)O1 (stereo not shown),8.16
19,CC(=O)O[C@@]12CO[C@@H]1C[C@H](O)[C@@]1(C)C(=O)[C@H](O)C3=C(C)[C@@H](OC(=O)[C@H](O)[C@@H](NC(=O)OC(C)(C)C)c4ccccc4)C[C@](O)([C@@H](OC(=O)c4ccccc4)[C@H]21)C3(C)C,0.463
20,Cc1cc(OCC(=O)c2ccc(C(F)(F)F)cc2)n2cnnc2n1,-2.11
21,Cc1ccccc1C(=O)N1CCC(C(=O)OCc2ccccc2Cl)CC1,14.6
22,CC(C)(C)n1nnnc1C(c1cccs1)N(Cc1cccnc1)Cc1ccccc1Cl (stereo not shown),-8.83

row,Structure (SMILES),"hERG current change (%, negative = inhibition) at 1uM [%]"
1,O=C(c1ccccn1)N1CCN(C(=O)c2ccccn2)CC1,10.7
2,COc1ccc(-c2cn3nc(SCC(=O)NCC4CCCO4)ccc3n2)cc1 (stereo not shown),13.5
3,CCOC(=O)c1nnn(-c2nonc2N)c1CN(C)C1CCCCC1,9.33
4,COc1ccc(NC(=O)CN2CCCC2)cc1,14.6
5,O=C(Nc1nnc(S(=O)(=O)N2CCCCCC2)s1)c1cccc(Br)c1,16.4
6,CCOC(=O)c1cc(NC(=O)c2ccco2)ccc1N1CCOCC1,0.851
7,COc1cc2c(=O)n(CCC(=O)NCC3CCCO3)c(=O)n(CC(=O)Nc3ccccc3C)c2cc1OC (stereo not shown),-4.95
8,COc1ccc(NC(=O)CN2C(=O)CSc3ccc(S(=O)(=O)N4CCCC4)cc32)cc1OC,10.8
9,O=C(C[n+]1cc(Br)cc(Br)c1)c1ccc(Cl)cc1.[Br-],2.66
10,Cc1cccc(OCC(=O)N2CCC(c3ccccc3)C2)c1 (stereo not shown),7.51
11,O=C(NC1CC(=O)c2sccc21)c1cccc(C(F)(F)F)c1 (stereo not shown),5.54
12,CC(On1c(-c2ccccc2)nc2ccc(Cl)cc21)C(=O)O (stereo not shown),24.9
13,Cc1cc(NC(=O)CSc2nnnn2C)n(-c2ccccc2)n1,0.916
14,CCOC(=O)C1(Cc2ccccc2C(F)(F)F)CCN(C(C)CCn2cccn2)CC1 (stereo not shown),-40.8
15,COC(=O)c1cc(S(=O)(=O)N2CCN(Cc3ccccc3)CC2)cn1C,6.69
16,COCCCNC(=O)C(C#N)c1nc2ccccc2nc1N1CCCC1 (stereo not shown),-2.53
17,CC(C)CC(C(=O)OCC(=O)c1c(N)n(C)c(=O)n(C)c1=O)N1C(=O)c2ccccc2C1=O (stereo not shown),2.01
18,CC(C)C(NS(=O)(=O)c1cccc2nsnc12)C(=O)N1CCn2c1nc1ccccc12 (stereo not shown),4.84
19,C=CCNC(=S)N/N=C(\C)c1ccccn1,-10.3
20,CCOc1cc(CNCC(O)c2ccccc2)cc(Cl)c1OC.Cl (stereo not shown),-0.978
21,Cc1cc(C)n(CC(=O)O)n1,11
22,O=C(COC(=O)CNC(=O)c1ccc(Cl)cc1)Nc1ccc2c(c1)OCCO2,11.8

row,Structure (SMILES),"hERG current change (%, negative = inhibition) at 1uM [%]"
1,Cc1onc(-c2ccccc2)c1C(=O)NC(C)C,11.7
2,Cc1cc(C)c(S(=O)(=O)Nc2cc(C)on2)c(C)c1,1.59
3,CC(=O)N1CCN(C(=O)CCCNC(=O)c2ccc(Cl)cc2)CC1,12.7
4,O=C(O)/C=C/c1ccc(S(=O)(=O)N2CCCCCC2)cc1,12
5,COc1ccc(C(=O)NC2CC2)cc1OC1CCN(Cc2cnn(C)c2)CC1,6.61
6,COC(=O)COc1ccc(/C=C2/NC(=O)N(CC(=O)OC)C2=O)cc1,12.6
7,CS(=O)(=O)N1CCN(c2ccccc2NC(=O)Nc2cccc(Cl)c2)CC1,18
8,CCOC(=O)C1CCCN(C(=O)CCNC(=O)Cn2ccc3ccccc3c2=O)C1 (stereo not shown),3.13
9,CN(c1cccc(NC(=O)c2ccc(N(C)S(=O)(=O)c3ccccc3)cc2)c1)S(C)(=O)=O,12.4
10,O=C(CNc1cccc(S(=O)(=O)N2CCCC2)c1)Nc1ccc(F)c(F)c1,19.2
11,CC(C)(C)c1ccc(OCc2ccc(C(=O)Nc3cccnc3)o2)cc1,6.81
12,Cn1c(O)c(C=NCCCC(=O)O)c(=O)n(C)c1=O,-0.766
13,O=C(CNc1cccc(S(=O)(=O)N2CCOCC2)c1)Nc1ccc(C(F)(F)F)cc1,-24.3
14,O=C1c2c(O)cc(O)cc2O[C@H](c2ccc(O)cc2)[C@H]1O,14.8
15,Cc1ccc(S(=O)(=O)Nc2cc(S(=O)(=O)N3CCOCC3)ccc2NCC2CCCO2)cc1 (stereo not shown),8.59
16,O=C(OCC(=O)N1CCN(c2ccccc2)CC1)c1ccncc1,4.53
17,Cc1nn(-c2ccccc2)c(=S)c2ccccc12,11.4
18,Cc1cc(NC(=O)c2cnn3c(C(F)F)cc(C4CC4)nc23)no1,3.33
19,CCOC(=O)c1c(-c2ccccc2)oc2ccc(OCC(=O)NNC(=O)CCCC(=O)O)cc12,15
20,CN(C)c1ccc(-c2nnn(CC(=O)N3c4ccccc4CCc4ccccc43)n2)cc1,8.54
21,Cc1ccnc(NS(=O)(=O)c2ccc(NC(=O)c3ccc(C)o3)cc2)n1,6.32
22,COc1ccc(OC)c(CNC(=O)c2nn(C)c3c2CS(=O)(=O)c2ccccc2-3)c1,19.4
